Laboratory results from ChEMBL document CHEMBL4888484, “Replenishing the malaria drug discovery pipeline: Screening and hit evaluation of the MMV Hit Generation Library 1 (HGL1) against asexual blood stage Plasmodium falciparum ,using a nano luciferase reporter read-out” (2022).
Among all 150,000 compounds or so, about 540 (0.36%) showed an effect of 50% or more. The list shows a part of the results.

What follows are molecules tested on Plasmodium falciparum (assay: Primary screen in NF54 nanoGlo assay, in single point, at 2uM, 72h; a lower Z score goes with more inhibition). Conditions: timepoint 72 hour.
Assay type: functional, Erythrocyte

| Compound | % Inhibition [%] | Z score |
| --- | --- | --- |
| COC[C@H]1CCCN(Cc2cccc(OC)c2C)CC1 | -6 | 0.62 |
| COc1ccc(-c2c(C(=O)NC3CC3)nn3c(C)cc(C)nc23)cc1S(=O)(=O)N1CCCCC1 | -6 | 1.11 |
| CCOc1ccc(NC(=O)N2C[C@H]3CC[C@@H](C2)[C@H]3OC)cc1C(F)(F)F | -10 | 0.98 |
| O=C(NC[C@@H]1Cc2ccccc2CO1)NC1CCCC(N2CCCC2=O)C1 (stereo not given in full) | 1 | -0.09 |
| CCCCC(N)C(=O)N1CCCC(OC)C1 (stereo not given) | -4 | 0.67 |
| CN1CC[C@@H]2CN(C(=O)c3ccc4sccc4c3)C[C@]2(C(=O)O)C1 | -10 | 1.86 |
| CCC#CCN1CCC[C@H](CN2CCCC2=O)C1 | 11 | -1.81 |
| O=C1NC[C@H]2CN(CC=Cc3ccc(F)cc3)CCN2C1=O | 1 | -0.04 |
| CCN1CCc2c(c(CN(CC(C)C)C(C)=O)nn2-c2ccccc2)C1 | 6 | -1.08 |
| O[C@H]1CC[C@H](Nc2ncc(Cl)cc2F)CC1 | 7 | -0.85 |
| Cc1nnc(CN(C)CCN(C)C2CCCC2)o1 | 9 | -1.11 |
| COc1nccc(N(C)C)c1NC(=O)CCCc1ccccn1 | -5 | 0.66 |
| Cc1cc(S(=O)(=O)NC2CCCC2C(N)=O)sc1C (stereo not given) | 0 | 0.05 |
| NC(=O)c1ccccc1OCC#CCNC(=O)c1cncc(Br)c1 | -10 | 1.27 |
| Cc1cc2c(cc1C)N(CC(=O)Nc1cc(Cl)ccc1C)C(=O)CC(c1cccs1)=N2 | 0 | 0.04 |
| CC(CO)(CO)NC(=O)c1ccc(Br)cc1 | 32 | -1.28 |
| Fc1cccc(F)c1-n1c(COc2ccc(Cl)cc2)csc1=S | 34 | -4.36 |
| CC1(C)C[C@@H](NC(=O)c2cn(CCCc3ccccc3)nn2)CCO1 | -1 | 0.11 |
| CCc1nn(C[C@H](O)c2ccc(Cl)cc2)c(=O)c(C#N)c1CC | -1 | 0.17 |
| Cc1n[nH]c(C2CN(CC(O)COCc3ccco3)CCO2)n1 (stereo not given) | 0 | 0.04 |
| O=C(NCC1CCCO1)C1Cc2cc(C(F)(F)F)ccc2N2CCN(c3ccccc3F)CC12 (stereo not given) | -18 | 1.98 |
| Cc1cccc(NC(=O)N2CCC(Cc3nncn3Cc3ccccc3)CC2)c1 | 5 | -0.53 |
| CCCn1c(=O)c(C(=O)N(CC)CC)nn(-c2ccc(Cl)cc2)c1=O | -6 | 0.98 |
| O=C(CN1CCCC1)N(CC(F)(F)F)c1ccc(Cl)cc1 | -11 | 1.06 |
| CC[C@@H](C(=O)Nc1nccs1)N(C)Cc1ccnc(C)c1 | 1 | -0.12 |
| CCS(=O)(=O)c1cc(Cl)cc(CNCc2ccn(C)n2)c1 | -2 | 0.22 |
| CCOc1ccc(-c2noc(CN3N=NC4C(=O)N(c5ccc(CC)cc5)C(=O)C43)n2)cc1OC (stereo not given) | 1 | -0.14 |
| CC(C)N(C)c1nc(N2CCN(c3ccccc3)CC2)nc2c1CN(C(=O)c1ccc(F)cc1F)CC2 | -8 | 0.76 |

| Compound | % Inhibition [%] | Z score |
| --- | --- | --- |
| O=C1N[C@@H](c2cc3c(cc2Br)OCO3)Nc2c1sc(=S)n2-c1ccccc1 | 1 | -0.17 |
| O=C(Cn1cnc2ccccc2c1=O)NCc1ccc(-c2ccoc2)nc1 | 7 | -0.92 |
| Cc1cc(C)c2ncn(CCCc3nnn[nH]3)c(=O)c2c1 | -10 | 1.82 |
| Fc1cc(F)cc(CN2C[C@@H](n3ccnc3)Cc3ccccc32)c1 | 7 | -0.92 |
| C[C@@H]1CN(CCCc2cn[nH]c2)C[C@H](C)O1 | -11 | 2.23 |
| O=C1NCCCc2[nH]c(-c3noc(C4CC4)n3)nc21 | -9 | 1.08 |
| Cc1cccc2oc(CNc3cc([C@H]4C[C@@H](O)C4)nc(N)n3)nc12 | -7 | 1.15 |
| CC1C(NC(=O)C2CC(C)(O)C2)CC(=O)N1Cc1ccccc1 (stereo not given) | -1 | 0.16 |
| CC(C)(CNC(=O)N1CC[C@H](Cc2nccs2)C1)c1cccnc1 | -6 | 0.93 |
| CCOCCCNC(=O)c1cn2c3c(cccc3c1=O)C[C@@H]2C | -3 | 0.39 |
| O=C(CC1CCCCCC1)N1CCCN(C(=O)c2ccc[nH]2)CC1 | -14 | 1.36 |
| CCc1nnc(CN(C(=O)Nc2cccc3c2CCC3)C(C)C)o1 | -21 | 1.92 |
| CN(C[C@H]1CCCO1)c1nccc(C2CCCC2)n1 | 6 | -0.71 |
| O=C(Nc1ccc(OCc2ccccc2)cc1)C1CCC1 | -11 | 1.53 |
| c1ccc(-n2ccc(CN3CCC[C@H]3c3ccsc3)n2)cc1 | -35 | 4.08 |
| CC[C@H](O)c1cc2n(n1)CCN(C(=O)c1ccncc1Cl)C2 | -2 | 0.33 |
| CCOC[C@H]1CCCN(C(=O)Nc2ccc(N3CCCC3)nc2C)C1 | 7 | -1.01 |
| Cc1cccc2c(=O)n(CC(=O)N(C)[C@H]3CC(=O)N(Cc4ccccc4)C3=O)cnc12 | 1 | -0.18 |
| COCCN(C)S(=O)(=O)NCC1CCC1 | -8 | 0.97 |
| Cc1ccc2c(Nc3ccc(S(C)(=O)=O)cc3)c(C(=O)N3CCCC3)cnc2n1 | -5 | 0.77 |
| Cc1ccc2c(c1)CN(C(=O)COCc1cc(C)on1)C(C)(C)C2 | -17 | 2.23 |
| O=C(COc1ccc2c(c1)OCO2)NCc1cccnc1 | -5 | 0.94 |
| COC(=O)CNC(=O)N[C@@H](C)CCc1ccc(OC)cc1 | -4 | 0.45 |
| C=C(C)COc1c(OC)cccc1-c1c(C#N)c(N)nc2c1COC2C (stereo not given) | -5 | 0.58 |
| CCOc1ccccc1CNC(=O)c1ccnc(-c2cccs2)c1 | -7 | 0.97 |
| N#CCC(=O)N1CC=C(C(F)(F)F)CC1 | -7 | 1.25 |
| Cc1ncsc1CCOc1cccc(CNC[C@H]2CCCO2)c1 | 1 | -0.16 |
